Data on 56 molecules can be found in article PMC4336329 (PLoS ONE, 2015).

Among all 310,000 compounds or so, about 14,000 (4.5%) showed an effect of 50% or more. Effects have a minus sign here. Some of the results follow.
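Note: peak tail current of the secondary pulse compared with the same well before compound.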

Chain of human ether-à-go-go-related gene (hERG) potassium channel (Q12809 whole entry, looked up): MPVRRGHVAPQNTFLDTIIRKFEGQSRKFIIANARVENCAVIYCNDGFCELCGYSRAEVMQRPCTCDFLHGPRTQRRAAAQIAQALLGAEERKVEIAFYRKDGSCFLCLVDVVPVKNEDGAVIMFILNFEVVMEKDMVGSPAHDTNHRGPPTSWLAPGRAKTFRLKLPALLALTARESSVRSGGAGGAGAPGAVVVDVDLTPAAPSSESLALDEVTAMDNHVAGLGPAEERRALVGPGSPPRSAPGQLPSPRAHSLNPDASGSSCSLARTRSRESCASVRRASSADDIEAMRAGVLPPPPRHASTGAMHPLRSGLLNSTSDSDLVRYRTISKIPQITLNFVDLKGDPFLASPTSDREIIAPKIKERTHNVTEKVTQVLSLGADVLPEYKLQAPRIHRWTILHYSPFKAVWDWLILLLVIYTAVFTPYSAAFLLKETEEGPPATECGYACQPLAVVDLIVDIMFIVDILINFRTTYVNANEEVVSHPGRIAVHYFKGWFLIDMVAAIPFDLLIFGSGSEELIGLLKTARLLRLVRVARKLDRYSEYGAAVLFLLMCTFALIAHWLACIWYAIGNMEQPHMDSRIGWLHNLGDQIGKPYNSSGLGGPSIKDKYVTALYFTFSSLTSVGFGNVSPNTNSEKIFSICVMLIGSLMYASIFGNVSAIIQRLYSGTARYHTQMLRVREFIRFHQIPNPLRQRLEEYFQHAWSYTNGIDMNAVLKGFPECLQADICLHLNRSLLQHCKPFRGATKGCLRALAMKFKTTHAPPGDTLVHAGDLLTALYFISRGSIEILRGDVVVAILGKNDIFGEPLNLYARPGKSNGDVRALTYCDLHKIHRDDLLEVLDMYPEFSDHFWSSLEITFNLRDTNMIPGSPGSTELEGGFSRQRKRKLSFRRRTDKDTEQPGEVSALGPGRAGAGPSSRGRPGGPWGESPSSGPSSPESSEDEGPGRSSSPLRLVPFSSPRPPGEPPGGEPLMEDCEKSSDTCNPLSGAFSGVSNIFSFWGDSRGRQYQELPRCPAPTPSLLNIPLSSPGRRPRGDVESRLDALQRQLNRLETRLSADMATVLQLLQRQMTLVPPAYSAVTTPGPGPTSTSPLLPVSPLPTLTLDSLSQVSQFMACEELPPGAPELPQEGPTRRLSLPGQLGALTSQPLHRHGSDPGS

This assay addresses human ether-à-go-go-related gene (hERG) potassium channel (human, UniProt Q12809). Description: primary screen, population patch clamp on CHO cells stably expressing hERG.
With `Cc1c(Br)c(=O)oc2cc(OCC(=O)N3C[C@H]4C[C@@H](C3)c3cccc(=O)n3C4)ccc12`, the “hERG current change (%, negative = inhibition) at 10uM” value is reported as -19.4%.
For the molecule `O=C(c1ccco1)N1CCCN(Cc2nc(-c3ccc4c(c3)OCO4)no2)CC1`, the “hERG current change (%, negative = inhibition) at 10uM” value is listed as -46.1%.
For the molecule `COc1ccc(CCNC(=O)C2CC(c3cccc(F)c3)=NO2)cc1` (centres unmarked), the “hERG current change (%, negative = inhibition) at 10uM” value is 6.13%.
In the case of `c1coc(-c2nc(-c3ccncc3)no2)c1` it was -1.13%; in that of `Cc1cc(C)cc(OC(C)C(=O)Nc2ccc3c(c2)n(C)c(=O)n3C)c1` (centres unmarked), -4.37%; in that of `COc1ccc(CC(=O)c2ccc(OC3OC(CO)C(O)C(O)C3O)cc2O)cc1` (centres unmarked), 14.2%.
Take `Cc1noc(C)c1COC(=O)c1ccccc1Sc1ccccc1C#N`: the “hERG current change (%, negative = inhibition) at 10uM” value was -8.67%.
For the molecule `c1ccc(-c2noc(C34CC5CC(CC(C5)C3)C4)n2)nc1`, the “hERG current change (%, negative = inhibition) at 10uM” value is recorded as -11.9%.
For `CC(CCc1ccccc1)NC(=O)c1ccc(NC(=O)c2cccc(Br)c2)cc1` (centres unmarked), the “hERG current change (%, negative = inhibition) at 10uM” value turned out to be 11.9%.
For `CCOC(=O)CC(C)(C)/C(C)=N/Nc1ccc([N+](=O)[O-])cc1[N+](=O)[O-]`, the “hERG current change (%, negative = inhibition) at 10uM” value is on record as -24.5%.
Turning to `Cc1cccc(OCC(=O)Nc2ccncc2)c1C`, the “hERG current change (%, negative = inhibition) at 10uM” value worked out at 2%.
In the case of `CC(=O)Nc1cccc(C(=O)OCc2ccc(C(=O)Oc3ccc(Cl)cc3)cc2)c1` it was 5.09%; in that of `Cc1ccc(NC(=O)COC(=O)Cc2cccs2)c(Br)c1`, 15.2%; in that of `FC(F)(F)c1cc(C(F)(F)F)c2ccc(N3CCN(c4ncccn4)CC3)nc2n1`, -28.5%.
In the case of `CCOc1cc(CNC)ccc1OCC(=O)NC(C)(C)C.Cl` it was 18.4%; in that of `O=C(COC(=O)Cc1ccc(Br)cc1)NC12CC3CC(CC(C3)C1)C2`, 5.98%.
In the case of `CCCCCCn1c(NCC)nc2c1c(=O)[nH]c(=O)n2C` it was -14.7%; in that of `Cc1ccc(CN2CC(C(=O)N3CCN(c4ccccc4Cl)CC3)CC2=O)cc1` (centres unmarked), -46.8%.
As to `CCOCCCN(Cc1ccco1)C(=O)c1cc2c(=O)[nH]c3ccc(C)cc3c2s1`, the “hERG current change (%, negative = inhibition) at 10uM” value is listed as -10.5%.
As for `CCOC(=O)N=S(=O)(Oc1ccc([N+](=O)[O-])cc1)c1ccccc1` (centres unmarked), the “hERG current change (%, negative = inhibition) at 10uM” value was -32.6%.
Regarding `CCC(=O)c1c[nH]c(C(=O)NCCCN2CCOCC2)c1`, the “hERG current change (%, negative = inhibition) at 10uM” value was found to be 5.59%.
For `COc1ccc(S(=O)(=O)NCCC(=O)N2CCCC2)cc1N(C)S(C)(=O)=O`, the “hERG current change (%, negative = inhibition) at 10uM” value came out at 15.3%.
In the case of `CCCCCCCC(=O)N/N=C/c1ccco1` it was -12.8%; in that of `COc1ccc(N(C)S(=O)(=O)c2cccc(C(=O)N3CCN(S(=O)(=O)c4ccc(C)cc4)CC3)c2)cc1`, -8%.
In the case of `CN(C)S(=O)(=O)c1cc(C(=O)N2CCC(C(=O)O)(c3ccccc3)CC2)ccc1Cl` it was 24.7%.
In the case of `Oc1c(/C=N/c2ccccn2)sc2ccccc12` it was -6.5%; in that of `COc1ccc(C(=O)NC(C)C2CC3CCC2C3)c(OC)c1` (centres unmarked), -41.6%; in that of `COc1ccc(Br)cc1CN1CCN(C(=O)Cc2ccccc2)CC1.Cl`, -7.37%.
Regarding `C=CCn1c(Cc2ccc(OC(C)C)c(Cl)c2)nnc1SCC(N)=O`, the “hERG current change (%, negative = inhibition) at 10uM” value is reported as -3.01%.
In the case of `CC(=O)NCc1cccc(CNC(C)=O)n1` it was 1.53%; in that of `S=c1[nH]nc(-c2ccn[nH]2)n1-c1ccccc1Cl`, 23%.
Turning to `O=C(C1CCC(C(=O)N2CCc3ccccc32)CC1)N1CCc2ccccc21` (centres unmarked), the “hERG current change (%, negative = inhibition) at 10uM” value was -0.582%.
In the case of `CC(NC(=O)[C@@H](C)NC(=O)[C@@H]1Cc2ccccc2CN1C(=O)OC(C)(C)C)c1ccccc1` (some centres unmarked) it was 9.87%; in that of `O=C(C1CCC(=O)N(C2CC2)C1)N1CCC(Oc2cccc(F)c2)CC1` (centres unmarked), -13%.
In the case of `CCOC(=O)N1CCN(C(=O)C(=O)N/N=C/c2ccc(OC)cc2OC)CC1` it was 3.05%.
In the case of `O=C(O)c1ccc(Br)c(S(=O)(=O)N2CCCC2)c1` it was 9.91%.
Turning to `CN(C(=O)COc1ccccc1)c1nc(-c2ccc(F)cc2)cs1`, the “hERG current change (%, negative = inhibition) at 10uM” value is 15.1%.
In the case of `O=C(NCc1ccccc1Cl)C1CC(=O)N(Cc2ccccc2)C1` (centres unmarked), the “hERG current change (%, negative = inhibition) at 10uM” value is listed as 12.1%.
In the case of `O=C(c1ccccc1)N1CCCCC(Cl)C1=O` (centres unmarked) it was 9.67%.
In the case of `CCC(C(=O)Nc1ccncc1)c1ccccc1` (centres unmarked) it was 0.0329%.
In the case of `Cc1cccc(CSc2nnc(NC(=O)CSc3nnc(C)s3)s2)c1` it was 13.7%; in that of `O=S(=O)(c1ccc(F)cc1)N1CN(Cc2ccco2)c2nc3ccccc3nc21`, -11.4%.
Turning to `CCc1cc(C(=O)OC)c(NC(=O)CC2NCCNC2=O)s1` (centres unmarked), the “hERG current change (%, negative = inhibition) at 10uM” value was 7.37%.
In the case of `NS(=O)(=O)c1ccc(Cl)c(C(=O)Nc2ccccc2[N+](=O)[O-])c1` it was 3.17%; in that of `O=C(Nc1cccnc1)c1cc(-c2cccnc2)nc2ccc(Br)cc12`, -28.6%.
In the case of `CSCCC(N=C1NS(=O)(=O)c2ccccc21)C(=O)NCCc1ccccc1` (centres unmarked) it was 13.2%; in that of `CCC(C)[C@H](NC(=O)N1CCn2c1nc1ccccc12)C(=O)NCCc1ccccc1` (some centres unmarked), -2.42%; in that of `CCOC(=O)c1sc(N/N=C/c2cc(Br)c(O)c(OC)c2)nc1C`, 4.89%.
For `CNC(=O)c1ccc(-c2ccc(OC)cc2)s1`, the “hERG current change (%, negative = inhibition) at 10uM” value amounted to 17.1%.
In the case of `CCc1nn(-c2ccccc2)c(=S)c2ccccc12` it was -0.667%; in that of `Cc1nn(-c2ccccc2)c(Cl)c1/C=C1\SC(=S)N(CCCCCC(=O)O)C1=O`, -23.5%; in that of `FC(F)(F)c1ccc2c3n(nc2c1)CCN=C3c1ccc(Cl)cc1`, -7.82%.
In the case of `CC1CC(C)CN(c2ccc(C(=O)OCC(=O)NC3CCCc4ccccc43)cc2[N+](=O)[O-])C1` (centres unmarked) it was 22.3%; in that of `COc1ccc(/C=C/C(=O)OCC(=O)c2c(N)n(C)c(=O)n(C)c2=O)cc1`, 5.38%; in that of `NS(=O)(=O)c1ccc(NC(=O)Nc2cccc(Cl)c2)cc1`, 17.5%.
For the molecule `CC1Oc2ccccc2N(CC(=O)NCC2CCCO2)C1=O` (centres unmarked), the “hERG current change (%, negative = inhibition) at 10uM” value is on record as -15.3%.
